This note sets out measurements from the RNAGym collection of RNA variant scans (doi:10.7554/elife.90254).

The source gives no read counts; variants with many changes may rest on few reads.

The chains are these.
B1: OR4K15 (parent)
chain: GUUAACGGUCAUAGGCCAUGGAAACUAGGAGCACCAUUUCGCUGCCAGUGAAGAAAUGAACAAAGAAAAUCUGGGCCAGGCAGGCAUCAAAAGAAAUAGUCUUGCGCUCAACCAGAAAGUCUGUAAUCAUUUUAAGGGUA

This data set covers variants of B1. Briefly: self-cleavage, relative activity (ratio to wild type); higher = more cleavage; in vitro, sequencing; the parent is a self-cleaving ribozyme.
As to A69U C81U A89U U102C U108C, the self-cleavage was found to be 0.01.
Regarding U72A A98G U124C A135U, the self-cleavage worked out at 0.02.
Consider G84A A91G A111G A117G U124C, for which the self-cleavage is 0.
Take A69U U102C A111G A129G: the self-cleavage stood at 0.
To A78U C88U A90G U122C belongs 0.12; to G74U U87C A94G, 0.17; to A68G U72A U103C U127C, 0.05.
In the case of U72A A86U A117G, the self-cleavage was 0.3.
The same measure for G74A A78U A92G U102C: 0.33; for A78G U108A U131C: 0.01; for A67G U87G U97C A140G: 0.74.
The same measure for U72A A95G U122C A134U: 0.14; for A67G A114G A116G A118G: 0.02; for G83A A92U G106U A111U: 0.01.
To G75A A86G A95U belongs 0.13.
As for G73A A78G U120C, the self-cleavage amounted to 0.07.
To A67G G75A A95G U108A belongs 0.01; to U72C G83A A94G A140G, 0.24.
The same measure for A82U A89U A90G: 0.07; for A78G U120C U127C: 0.09; for A69G A89U U130C: 0.78.
Regarding A67G U131C U132C, the self-cleavage worked out at 2.22.
For U72C A89U U132A, the self-cleavage stood at 0.11.
For A69G U108C U130C, the self-cleavage worked out at 0.01.
Regarding A78G U102C A140G, the self-cleavage came out at 0.26.
Turning to A78G G80A U127C, the self-cleavage was 0.12.
To A68G U108A U120A belongs 0.02; to A78U A86G A91G, 0.02.
For the variant A69G A129C U131C, the self-cleavage amounted to 1.38.
As for U70G A82G A92G A126G, the self-cleavage was found to be 0.13.
The same measure for A68G A126G A129G A135G: 0.71.
Turning to A68G A117G U127C, the self-cleavage came to 1.08.
In the case of A67U C76U U100C A111G U122A U124A, the self-cleavage is 0.02.
To A82U A94G A116G A134G belongs 0.04; to A68G A82G A118G, 0.38.
To A68G G93U A110C belongs 0.45; to A67U U70C A82U A89C A110G U127C U130C, 0.01; to U70C A82U A91G, 0.13.
Regarding A69G U70G U72C U124C, the self-cleavage was determined as 0.17.
To U72A A96G U100C A116U U120C belongs 0.11; to A68G A92G A117G A135U, 1.91; to A82G U100C A129G, 0.74.
The same measure for U70C G79U A96G A110U A117G: 0.17; for A82G A96U G138U: 0.5; for U72C U87C A118G A140U: 0.12.
As for A69G A86G U97C, the self-cleavage stood at 0.56.
The same measure for A69G U70C A86G A110G: 0.02; for A68U U70C A78G A95G U120C U122C: 0.21.
Take A67G U102A A117G: the self-cleavage came out at 1.48.
With A82G A86G U100C U103C A129G, the self-cleavage was 1.38.
The same measure for U72C C105U A110G: 0.04.
Consider A67G C76U A118U U122A, for which the self-cleavage is 0.01.
To A78U A95G U127A belongs 0.9; to A69G A91G U132A, 1; to A78G U122A A126G A129G U130C, 0.
As to A69G A94G U108C, the self-cleavage came out at 0.01.
On to A82G A96G A117G U131C, for which the self-cleavage is 0.1.
To A68G A117G U130C U131C belongs 1.68.
The same measure for A68G A118G U131C: 0.94; for A68G A111G A116G: 0.03.
Turning to A69C A95G A111G A126G, the self-cleavage was 0.01.
As to A78U A82U U108C, the self-cleavage came out at 0.02.
The same measure for A78G A126U U132C: 0.07; for A68G U103C U108C A114U: 0.02.
The same measure for C77U A91G U102A U130C: 1.35; for G79A U87A A129G: 0.04.
For A78U A110G A135U, the self-cleavage was 0.08.
As for U70C A82U U131A U132C, the self-cleavage is 0.19.
With G75A U102A U122C, the self-cleavage is 0.03.
The same measure for A78G A86G A116G U122C: 0.07; for U70C A90G A91G A125G: 0.02.
With A67G A111G U122C, the self-cleavage was determined as 0.01.
As to A69G A94G U122C A129G, the self-cleavage is 1.53.
To A69G U70A U108C G115A belongs 0.02; to A82G U120C A129G U131C, 0.14; to A69G A111G A114U, 0.03.
To U72A G79U U102A G104A belongs 0.01; to A69G A89G A96G, 0.67.
As to A68G U72C A90G A110G, the self-cleavage is 0.03.
To A68G C85U U103C belongs 0.29; to A82U G104C C121U U122A G123C U132C, 0.15.
To A78G A118U U120A belongs 0.16.
Take U72C A91G A94G: the self-cleavage was found to be 0.13.
To A82U A90G U131C belongs 0.13; to A68G A114G U120C, 0.12.
To U70C C77U U103A belongs 0.03; to A68G U72C A116U, 0.11; to U72C A86G U130C, 0.16.
Take A82U A117G A126U: the self-cleavage turned out to be 0.13.
Consider A78G A91G U130C U133C, for which the self-cleavage stood at 0.09.
The same measure for A67G A92G A116G U133C: 0.16; for A67U U70C U108A: 0.03.
To U70G A82G A96G A126G belongs 0.12.
Take A78G A95G A140G: the self-cleavage is 0.22.
To U70C A118U U120C belongs 0.09; to A68G A96U U103C, 1.
Consider A82G A86G A110G, for which the self-cleavage is 0.04.
A68G A86G A96G: the self-cleavage is 0.62.
To U72A A82G A118G belongs 0.13; to C77U A89G U122C, 1.88.
The same measure for C81U A118G U132C: 0.09.
To A68G A96G A118G U127A belongs 1.47; to U70C A90G U127C, 0.26; to A69U A95G U103C, 1.7.
With U72A A82G A110G C112U, the self-cleavage turned out to be 0.
To A68G A82G U127C belongs 0.29; to A69G U130C A135C, 0.53.
For the variant A68U U72C A94G U131C, the self-cleavage is 0.16.
Turning to A68G A78C A117G, the self-cleavage came to 0.21.
The same measure for A69U A92G A110U: 1.87; for A78G A90C A134G: 0.18; for A69G U103C A111G: 0.03.
With A82U A95U A135G, the self-cleavage was 0.24.
To A82G A92G A96G belongs 0.31.
To A68G A96U A114U A125G belongs 0.02; to U70C U87C U102C, 1.02; to A78U A95U U100A, 0.04.
To A82U A96G U102A belongs 0.65; to A69G A92G U108C, 0.
Regarding U70A U127C U131C, the self-cleavage worked out at 0.9.
The same measure for G79C A116G U120G: 0.01; for A68G A86U A114G: 0.34; for U72A A82U G106U U108A: 0.01.
To A68G A117G A140G belongs 2.33.
To A82G U102C A118U belongs 0.06; to U72C A90G U100C A110U U131C, 0.16; to C77U A91G U102C U130C, 2.3.
As for G80A A114U U120C, the self-cleavage was 0.01.
For the variant A69G U132A A134G, the self-cleavage amounted to 1.57.
The same measure for A67G A89C U100C: 1.83; for A68G A86G U97C: 1.32; for A68G U97C U127C: 0.68.
Turning to U72C A89G U108C, the self-cleavage was 0.01.
As to U70C A89U U100C U120C, the self-cleavage was 0.45.
As for U70C A86U A111G, the self-cleavage was found to be 0.02.
The same measure for G74U A82G A90G: 0.16.
Turning to U70C A90G A116G, the self-cleavage stood at 0.88.
Consider C71U U87C U122C, for which the self-cleavage stood at 0.21.
For A69G U108C A110G A111G, the self-cleavage was found to be 0.01.
As to U72A A82U A116G, the self-cleavage came out at 0.14.
To U70C A95G U102C A116U A126G belongs 1.11; to A78G A86G A96G, 0.15.
For A78G A89G U130C U132C, the self-cleavage was determined as 0.34.
For A78U A95G A125G, the self-cleavage was 0.12.
The same measure for G74C A96G U122C: 0.12; for U72C A96G G119A: 0.3; for U72C A95G A129G: 0.14.
Take A67G U70C A86C: the self-cleavage worked out at 0.38.
To A82G A89G U108C belongs 0.01; to A68C U100C A114G, 0.57.
On to A68G A89G U127C U139C, for which the self-cleavage stood at 0.81.
On to A78U A91U U103C, for which the self-cleavage turned out to be 0.07.
Take A69G A92G A94G: the self-cleavage turned out to be 1.47.
To A67U U100C U130C belongs 2.91.
With A78G U87C A117G G136U, the self-cleavage is 0.11.
The same measure for A82G U103C A118G: 0.79; for A78G A82U A86G U122C G123A: 0.07.
To A78G A98U U103C A129G belongs 0.13; to A68G G79A A129G U132A, 0.02; to G79C U102C A140G, 0.05.
With A69G A82G U108C U131C, the self-cleavage was 0.01.
Take U72C U102C A110U: the self-cleavage was 0.27.
The same measure for A67G U108C A129G: 0.02.
For A68G A86G A92U A118U, the self-cleavage turned out to be 0.99.
Turning to A78U A82U A89G, the self-cleavage is 0.08.
The same measure for A69U U103G C121U: 0.02; for A78C A82U A114U: 0.
